# Results: publication PMC6451091
# Some of the results follow. For part of these data: At the low end of the ranking the order means little. For part of these data: The protein was read in a cell extract, so binding may be indirect.
# Columns and labels:
# Details in all cases: 20 mM HEPES pH 7.9, 100 mM NaCl, 1 mM DTT, 0.2 mg/mL BSA, 0.02% Triton X-100, 2% milk, 0.4 mg/mL salmon testes DNA; 1 h; temperature not stated; high values mean tight binding; double strand, one strand shown; sequences stand for … in GCCTAGCAC…GTGCTAGGTCTTGATTCGCTTGACGCTGCTG
# [1] = biological target: PU.1 (IVT) (UniProt P17947); assay: protein-binding microarray (PBM)
# [2] = biological target: PU.1 (endogenous, THP-1 nuclear extract) (UniProt P17947); assay: nuclear extract protein-binding microarray (nextPBM)
# [3] = biological target: T1, FLI1 (endogenous, THP-1 nuclear extract) (UniProt Q01543); assay: as above
# T1 sequence: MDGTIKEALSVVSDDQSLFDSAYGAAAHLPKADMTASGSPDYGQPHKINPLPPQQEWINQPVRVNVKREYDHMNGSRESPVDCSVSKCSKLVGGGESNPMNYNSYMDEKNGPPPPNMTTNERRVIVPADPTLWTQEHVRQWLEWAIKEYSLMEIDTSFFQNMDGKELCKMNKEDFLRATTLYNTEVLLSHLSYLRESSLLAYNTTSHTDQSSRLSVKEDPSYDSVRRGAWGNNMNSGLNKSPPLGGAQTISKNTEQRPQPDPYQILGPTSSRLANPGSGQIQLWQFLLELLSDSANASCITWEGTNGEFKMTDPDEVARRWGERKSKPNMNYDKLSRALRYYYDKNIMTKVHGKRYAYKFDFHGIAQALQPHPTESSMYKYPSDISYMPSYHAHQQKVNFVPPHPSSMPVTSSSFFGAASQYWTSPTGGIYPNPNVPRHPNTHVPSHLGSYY
sequence,measurement,setting,value
GAATTGAGGAAGTGCAGAAG,binding signal,[1],6.21 z-score
same,binding signal,[2],6.66 z-score
same,binding signal,[3],3.54 z-score
GAAATGAGGAACAGGATCTG,binding signal,[1],4.26 z-score
same,binding signal,[2],4.84 z-score
same,binding signal,[3],1.63 z-score
TCAAAGAGGAAGTGCTCCTG,binding signal,[1],6.64 z-score
same,binding signal,[2],6.8 z-score
same,binding signal,[3],3.76 z-score
GAAAATAGGAAGTCCCATAG,binding signal,[1],4.72 z-score
same,binding signal,[2],4.82 z-score
same,binding signal,[3],1.88 z-score
CCAAAGAGGAACTGCAGATT,binding signal,[1],4.14 z-score
same,binding signal,[2],4.61 z-score
same,binding signal,[3],1.4 z-score
GAAAACAGGAAGTCCCATAG,binding signal,[1],6.82 z-score
same,binding signal,[2],7.04 z-score
same,binding signal,[3],4.63 z-score
